Results published in PubChem BioAssay AID445 (National Center for Advancing Translational Sciences (NCATS), 2006).
Several values for one entry are separate records, joined by “and”; a condition that tells them apart may be missing. Equal values may be shown once. About 40 (0.04%) of roughly 110,000 compounds were called active. The shares of active, inactive and inconclusive entries below differ from those in the screen. The call rests on the fitted dose curve; in most records, active means well fitted curve in the direction sought with a large enough effect in the signal ratio (not every such curve was filed as active); inconclusive means small, poorly fitted or top-dose-only effect, or a change in a side signal; inactive means flat fitted curve, though single readings scatter; the % refers to the signal ratio. Where the call is inconclusive, the potency comes from a doubtful curve fit.

Assay: IkB Signaling;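 on IkBa stabilization activation: 0% = basal untreated cells and 100% = reference inhibitor full response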
Conditions: ABC-DLBCL IkBa-CBG/CBR dual luciferase ratio (green luciferase fused to IkBa over red control in OCI-Ly3 lymphoma cells), 4 h; IkBa stabilization activation: at 57.1 µM (top of the series), scaled: untreated 0%, proteasome inhibitor 100% unless noted
Outline: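 Luminescence ratio of IκBα-fused green versus native red beetle luciferase in OCI-Ly3 cells, 4 h post-doxycycline with compound; red signal alone, scaled from basal (0%) to zero light (-100%), flagged nonspecific or cytotoxic effects.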
Potency means the concentration at half of the fitted maximal effect.

Row | Compound | IkBa stabilization activation | Potency
1 | O=C(O)c1ccccc1-c1c2cc(Br)c(=O)cc-2oc2[c]([Hg])c(O)c(Br)cc12 | inactive: 5.02% [at 25.6 µM, scaled: untreated 0%, proteasome inhibitor 100%] | 
2 | O=c1cccc2n1C[C@H]1C[C@@H]2CN(CCO)C1 | inactive: -0.0654% [at 11.4 µM, scaled: untreated 0%, proteasome inhibitor 100%] | 
3 | Cc1ccccc1-n1c(/C=C/c2ccc(O)cc2)nc2ccccc2c1=O | inconclusive: 3.07% [signal inhibitor] | 
4 | CCOC(=O)C1=C(N)Oc2c(c(=O)oc3ccccc23)C12C(=O)N(C)c1ccccc12 (configuration not stated) |  | inconclusive: 3.98 µM [signal inhibitor, partial curve]
5 | Cc1ccc(Cn2cccc(C(=O)Nc3nnc(C)s3)c2=O)cc1 | inconclusive: 1.65% [signal activator] | 
6 | CC(C)CCOC(=O)c1c(N)n(CC2CCCO2)c2nc3ccccc3nc12 (configuration not stated) | inconclusive: 0.744% [signal inhibitor] | 
7 | CC1SC2(CN3CCC2CC3)NC1=O (configuration not stated) | inactive: -1.22% | 
8 | CCN(CC)C(=O)c1ccc(NC(=O)Cn2nc(-c3ccc(C)cc3)c3ccccc3c2=O)cc1 | inconclusive: -2.49% [signal inhibitor] | 
9 | C=CCN1C[C@@H](C)N([C@H](c2ccc(C(=O)N(CC)CC)cc2)c2cccc(OC)c2)C[C@H]1C | inactive: -7.1% | 
10 | CCC(=NCC1CCCO1)c1c(O)n(Cc2ccccc2)c(=O)[nH]c1=O (configuration not stated) | inactive: -2.72% | 
11 | CN1C[C@H](CNC(=O)OCc2ccccc2)C[C@H]2c3cccc4c3c(cn4C)C[C@@H]21 | inconclusive: 0.533% [signal inhibitor] | 
12 | NC(N)=Nc1ccc2[nH]c3c(c2c1)C[C@]1(O)[C@@H]2Cc4ccc(O)c5c4[C@]1(CCN2CC1CC1)[C@H]3O5 | inactive: -0.334% | 
13 | COP(=S)(OC)SCn1nnc2ccccc2c1=O | inactive: -2.81% | 
14 | CC1=C[C@@H]2c3cccc4[nH]cc(c34)C[C@H]2N(C)C1 | inactive: 4.18% | 
15 | COc1ccc(C[C@@H]2NC[C@H](O)[C@H]2OC(C)=O)cc1 |  | inconclusive: 0.316 µM [rising, single point]
16 | CN(CCc1ccc(Cl)c(Cl)c1)[C@H]1CCCC[C@H]1N1CCCC1 | inconclusive: 0.826% [signal inhibitor] | 
17 | O=c1[nH]c2ccccc2n1CCCN1CCC(n2c(=O)[nH]c3cc(Cl)ccc32)CC1 | inactive | 
18 | CCCCOC(=O)c1ccccc1C(=O)OCc1ccccc1 |  | inconclusive: 1 µM [signal inhibitor, full curve]
19 | COc1ccc(Cn2c(N)c(C(=O)NCc3ccco3)c3nc4ccccc4nc32)cc1 |  | inconclusive: 25.1 µM [rising, partial curve]
20 | c1ccc2c(c1)OC[C@@H](C1=NCCN1)O2 | inconclusive: 19.1% [signal inhibitor] | inconclusive: 15.8 µM [rising, partial curve]
21 | [CH3][Hg][Cl] |  | inconclusive: 0.251 µM [signal activator, full curve, poor fit]
22 | CC(C)CCNC(=O)c1c(N)n(CC2CCCO2)c2nc3ccccc3nc12 (configuration not stated) | inactive: 3.64% | 
23 | Cc1nc2cc(C(=O)N3CCC4(CC3)OCCO4)ccc2n1-c1cccc(F)c1 | inactive: 2.12% | 
24 | C=CCN1CC[C@]23c4c5ccc(O)c4O[C@@H]2/C(=N/NC(=O)c2ccccc2)CC[C@@]3(O)[C@H]1C5 | inconclusive: -2.97% [signal activator] | 

Row | Compound | IkBa stabilization activation | Potency
25 | CCCCn1c(=O)c(C(=O)Nc2nc3ccccc3[nH]2)c(O)c2ccccc21 |  | inconclusive: 0.1 µM [signal inhibitor, full curve]
26 | CC(C)C(=O)CP(=O)(O)O | inactive: -0.591% [at 11.4 µM, scaled: untreated 0%, proteasome inhibitor 100%] | 
27 | CC1(C)CCC(C)(C)c2c1ccc(O)c2Cc1c(O)ccc2c1C(C)(C)CCC2(C)C | inactive: 5.58% [at 11.4 µM, scaled: untreated 0%, proteasome inhibitor 100%] | 
28 | C#CCO | inactive: -1.47% | 
29 | C[C@H]1CC[C@@H]2[C@@H](C)C(=O)O[C@H]3O[C@@]4(C)CC[C@@H]1[C@]32OO4 | inactive: -0.946% [at 11.4 µM, scaled: untreated 0%, proteasome inhibitor 100%] | 
30 | C[N+]1(C)CCc2cc3c(cc2[C@@H]1[C@@H]1OC(=O)c2c1ccc1c2OCO1)OCO3 | inactive: -2.04% | 
31 | COC1=C(C)C(=O)c2c(c(COC(N)=O)c3n2C[C@@H]2[C@@H]3N2C)C1=O (some centres not stated) |  | active: 3.16 µM
32 | COc1cc(C=C(C#N)C#N)cc(O)c1O | inactive: 3.18% | 
33 | Cc1cccc(-n2c(/C=C/c3c[nH]c4ccccc34)nc3ccccc3c2=O)c1 | inconclusive: -1.93% [signal inhibitor] | 
34 | NS(=O)(=O)c1ccc(N=Cc2c(O)n(C3CCCCC3)c(=O)n(C3CCCCC3)c2=O)cc1 | inconclusive: -4.59% [signal inhibitor] | 
35 | CSc1ccc(CN2CCN(C(=O)COc3cccc(C)c3)CC2)cc1 | inconclusive: 14.4% [signal inhibitor] | 
36 | O=C1NC(=S)NC(=O)C1=Cc1cccc2cc3ccccc3cc12 | inconclusive: 18.8% [signal inhibitor] [at 11.4 µM, scaled: untreated 0%, proteasome inhibitor 100%] | 
37 | CN(C)P1(N(C)C)=Nc2c(c(N)nn2C)C(c2ccccc2)=N1 | inconclusive: 3.53% [signal inhibitor] | 
38 | [Cd+2].[Cl-].[Cl-] |  | active: 3.98 µM
39 | C[C@@H]1O[C@H](O[C@@H]2C=C3CC[C@H]4[C@@H](CC[C@]5(C)[C@@H](c6ccc(=O)oc6)CC[C@]45O)[C@@]3(C)CC2)[C@@H](O)[C@H](O)[C@@H]1O | inconclusive: 1.15% [signal inhibitor] [at 25.6 µM, scaled: untreated 0%, proteasome inhibitor 100%] | 
40 | CCOc1ccc(CN(CCc2ccc3c(c2)OCO3)Cc2cc(OC)ccc2O)cc1 | inconclusive: 2.21% [signal inhibitor] | 
41 | Cc1cc(OCC(=O)N2CCN(CCc3ccncc3)CC2)ccc1Cl | inconclusive: 2.42% [signal inhibitor] | 
42 | CSc1ccc(/C=C/c2nc3ccccc3c(=O)n2-c2cccc(Cl)c2C)cc1 | inconclusive: -0.0998% [signal inhibitor] | 
43 | CCOC(=O)C(O)(c1ccc(NC(=O)c2ccco2)c(OC)c1)C(F)(F)F (configuration not stated) |  | inconclusive: 20 µM [signal inhibitor, partial curve]
44 | Cc1cccc(C2=NCC(=O)N(CC(=O)NCc3ccco3)c3sc4c(c32)CCCC4)c1 | inconclusive: 4.99% [signal inhibitor] | 
45 | CCN(CC)C(=O)N[C@H]1C[C@H]2c3cccc4[nH]cc(c34)C[C@@H]2N(C)C1 | inactive: 2.21% | 
46 | Cn1c(O)c(C=NCCOc2ccc(Cl)cc2)c(=O)n(C)c1=O | inactive: 4.14% | 
47 | O=C1CC[C@@]2(O)[C@H]3Cc4ccc(O)c5c4[C@@]2(CCN3CC2CC2)[C@@H]1O5 | inactive | 
48 | CC(C)[C@@]1(NC(=O)[C@@H]2C[C@H]3c4cccc5[nH]cc(c45)C[C@@H]3N(C)C2)O[C@@]2(O)[C@H]3CCCN3C(=O)[C@H](Cc3ccccc3)N2C1=O | inconclusive: 0.874% [signal inhibitor] and inconclusive: 0.276% [signal inhibitor] | 

Row | Compound | IkBa stabilization activation | Potency
49 | CC(=NCc1cccnc1)c1c(O)n(Cc2ccccc2)c(=O)[nH]c1=O | inactive: -3.19% | 
50 | C[C@@H]1Cc2cc3c(cc2C(c2ccc(N)cc2)=NN1)OCO3 | inactive: 1.53% | 
51 | Oc1cc(Cl)c(Cl)c(Cl)c1Cl | inconclusive: -5.36% [signal inhibitor] | 
52 | O=C(c1ccc2nc(-c3ccco3)c(-c3ccco3)nc2c1)N1CCC2(CC1)OCCO2 | inactive: 1.03% | 
53 | C=CC(=O)OCCO | inactive: -0.323% | 
54 | Cc1cc(Cl)ccc1OCC(=O)N1CCN(C)CC1 | inactive: 2.94% | 
55 | CC(C)Nc1ccc(Nc2ccccc2)cc1 | inconclusive: -5.73% [signal inhibitor] | 
56 | Cc1cc2c(s1)NC(=O)CN=C2c1cccs1 | inactive: 1.2% | 
57 | COc1ccc(OC)c(C(c2c(O)c3ccccc3oc2=O)c2c(C)n(C)n(-c3ccccc3)c2=O)c1 (configuration not stated) | inconclusive: 8.08% [signal inhibitor] | 
58 | Cc1c(C(=O)N2CCC3(CC2)OCCO3)oc2ccccc12 | inactive: 0.648% | 
59 | c1ccc(C(OCCN2CCNCC2)c2ccccc2)cc1 | inactive: 0.449% | 
60 | COc1ccc2c(c1O)-c1cccc3c1[C@H](C2)N(C)CC3 | inactive: -0.0559% | 
61 | CC(=O)[C@@H]1CC[C@@H]2[C@H]3CC[C@H]4C[C@@H](O)CC[C@]4(C)[C@@H]3C(=O)C[C@]21C | inactive: 12.1% | 
62 | CC1(C)CN=C(Nc2nc3ccccc3s2)S1 | inactive: 10.4% | 
63 | Cl/C=C/CCl | inactive: 2.07% | 
64 | C[C@H](CC(C#N)(c1ccccc1)c1ccccc1)N1CCCCC1 | inactive: 1.4% [at 11.4 µM, scaled: untreated 0%, proteasome inhibitor 100%] | 
65 | CC(C)C(=O)c1cn(Cc2ccccc2C#N)c2ccccc12 | inactive: 5.99% | 
66 | Cc1o[nH]c(=O)c1C[C@@H](N)C(=O)O | inactive: -0.194% | 
67 | C1=C(c2c[nH]c3ccccc23)CCNC1 | inconclusive: 5.31% [signal inhibitor] | 
68 | O=S1(=O)N(Cc2ccccc2)CCCN1Cc1ccc(F)cc1Cl | inconclusive: 3.64% [signal inhibitor] | 
69 | Cc1c(C(=O)c2cccc3ccccc23)c2cccc3c2n1[C@H](CN1CCOCC1)CO3 | inconclusive: 8.17% [signal activator] | 
70 | O=[N+]([O-])c1ccc2c3c(cccc13)CC2 | inactive: 0.339% | 
71 | CC[C@@H]1CN2CCc3cc(OC)c(OC)cc3[C@H]2C[C@@H]1C[C@@H]1NCCc2cc(O)c(OC)cc21 | inconclusive: -5.82% [signal inhibitor] [at 25.6 µM, scaled: untreated 0%, proteasome inhibitor 100%] | 
